# Assay results as given in ChEMBL document CHEMBL4888484, “Replenishing the malaria drug discovery pipeline: Screening and hit evaluation of the MMV Hit Generation Library 1 (HGL1) against asexual blood stage Plasmodium falciparum ,using a nano luciferase reporter read-out” (2022).
# Among all 150,000 compounds or so, about 540 (0.36%) showed an effect of 50% or more. The list shows a part of the results.
# Tested on: Plasmodium falciparum
# Assay: Primary screen in NF54 nanoGlo assay, in single point, at 2uM, 72h; a lower Z score goes with more inhibition
# Type: functional, Erythrocyte
# Conditions: timepoint 72 hour
Structure (SMILES),% Inhibition,Z score
COc1cc(Nc2nc(=O)[nH]nc2C)c(OC)cc1Cl,-8%,1.14
CN(C)c1cnn(CC(=O)NCc2ccc3c(c2)OCO3)c(=O)c1,-10%,1.76
O=S(=O)(Nc1cccc2[nH]ncc12)N1CCCCC1,-6%,1.18
CC(C)COCC(C)NC(=O)C1CCCCC1C(=O)N1CCCC1 (stereo unspecified),-15%,2.08
O=C(CN1CCCc2c(Cl)cc(Cl)cc21)N1CCNC1=O,5%,-1.03
Cn1c(CN2CCCCCC2)nnc1C1CCN(c2ccncc2F)CC1,-9%,1.8
Cc1ccc(NC(=O)NC2C3CCC(C3)C2CO)s1 (stereo unspecified),-12%,2.28
CN(C[C@H]1CCCN1C)c1nc(-c2ccccc2)no1,-16%,2.98
C[C@H](NCCN1CCc2ccccc2C1)c1cc(CO)on1,-15%,2.19
CCCn1c(=O)c(N2CCN(C(=O)c3ccc(F)c(Cl)c3)CC2)nc2ccccc21,-9%,1.65
O=S(=O)(NCC1(CO)CCOCC1)c1cccnc1,-11%,2.06
CN1CCC(CCNS(=O)(=O)CC2CCCC2)CC1,-27%,2.73
CCc1nnc(-c2ccc3ccn(CC(=O)N4CCN(c5ccc(F)cc5)CC4)c3c2)o1,4%,-0.45
Cc1nccc(NC(=O)NCc2cccs2)c1Cl,-17%,1.4
Cc1cnc2c(c1)N(C(=O)c1ccc(C(F)(F)F)nc1)CCO2,4%,-0.51
CCOC(=O)c1cc(F)cc(S(=O)(=O)Nc2ccnc3ncnn23)c1,35%,-5.1
O=C1CC[C@@H](c2ccc(OCc3nnc4n3CCCCC4)cc2)N1,-10%,1.45
O=C(Cn1cnc2ccccc21)Nc1ccc2c(c1)CCC2,2%,-0.33
CC(C)(CC(=O)O)NCc1ccc(Cl)c(F)c1,-9%,1.11
C[C@H](NCc1ncn(-c2ccccc2)n1)C1CCOCC1,-2%,0.34
Cc1ccsc1CN1C[C@H](NC(=O)CCO)[C@@H](C2CC2)C1,-16%,1.44
CC(=O)N1CCN(C(=O)CCc2cccc(F)c2)C[C@@H](O)C1,4%,-0.67

Structure (SMILES),% Inhibition,Z score
NC(=O)c1cnn(CCc2ccc(F)c(F)c2)c1,0%,0.03
Cc1ccc(Cn2cc([C@H](CC(=O)NCc3ccncc3)c3cccc(OCc4ccccc4)c3)c3ccccc32)cc1,1%,-0.11
Cn1c([C@@H]2CNC(=O)C2)nnc1N1CCN(c2ccccc2)CC1,-1%,0.11
O=C1COC(=O)N1C1CCN(S(=O)(=O)c2ccc(Cl)s2)CC1,10%,-1.89
CC(C)c1ccc(NC(=O)N2CCc3nc(N4CCCCC4)nc(Oc4ccc(F)cc4F)c3C2)cc1,9%,-1.3
CN(C)c1nccnc1N1CCc2c(c(C(N)=O)nn2C)C1,-4%,0.74
COCC1(CNC(=O)N2CC(n3nc(C)cc3C)C2)CC1,-17%,1.79
O=C(COc1ccc(Cl)cc1)NC[C@H]1CN(C2CC2)CCO1,-1%,0.16
Cc1cc(C)cc(CN2C(=O)NC3(CC(O)C3)C2=O)c1 (stereo unspecified),-9%,0.94
CC(C)NC(=O)N(Cc1ccccc1)C[C@H]1CC(c2ccc(Cl)c(Cl)c2)=NO1,-6%,0.5
C[C@@H](NC(=O)[C@@H]1C[C@H]1c1ccc(Cl)cc1)C(=O)N1Cc2ccccc2C1,-9%,1.24
Cc1ncc(-c2ccccc2)cc1NC(=O)c1nccnc1N,-1%,0.19
COc1ccc(CCNC(=O)C2CCN(c3nccn4nc5c(c34)CCCC5)CC2)cc1OC,41%,-6.38
Nc1cc2c3c(cccc3c1)C(=O)OC2=O,-19%,2.51
COc1ccc(S(=O)(=O)N(CC(=O)NCc2cccnc2)C2CCCCC2)cc1OC,39%,-1.11
Cn1nc2c(c1CNc1nnc(-c3cccs3)o1)COCC2,-6%,0.82
c1ccn2c(C3CCCCC3)ncc2c1,-9%,1.21
CCOC(=O)N1CCc2c(nc(-c3ccc(C)cc3)n(CC(=O)Nc3ccc(C)c(Cl)c3)c2=O)C1,4%,-0.65
CCC(=O)N1CCC(NCc2ccc(C)o2)C(C)C1 (stereo unspecified),-6%,0.81
CCCC1(CCC)NC(=O)N(CC(=O)N2C(C)CCCC2C)C1=O (stereo unspecified),-16%,3.26
O=S(=O)(Cc1ccccc1)NCC1(Cc2ccccc2)CC1,-5%,0.93
